Source: the supplement of paper PMC8728848
The list shows a part of the results.

Columns and labels:
Assay in all cases: glycan array binding signal (z-score within array); higher = stronger binding
Settings in all cases: glycan notation: IUPAC condensed, linker removed
[1] = molecular target: Fuc(a1-2)[GalNAc(a1-3)]Gal(b1-4)[Fuc(a1-3)]GlcNAc
Summary of the method: (§1)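 The Consortium for Functional Glycomics database supplied 3228 glycan arrays, of which those lacking an available protein sequence were dropped. The binding signal, a within-array Z-score, was averaged across arrays of the same protein sequence and across linkers. Negative scores can be read as non-binding.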

[2] = molecular target: Fuc(a1-2)[GalNAc(a1-4)]Gal(b1-4)GlcNAc
Summary of the method: as §1

[3] = molecular target: Fuc(a1-2)[GalNAc(b1-3)]Gal
Summary of the method: as §1

Fuc(a1-3)GlcNAc = molecular target: Fuc(a1-3)GlcNAc
Summary of the method: as §1

[4] = molecular target: Fuc(a1-3)[Gal(b1-4)]Glc6S
Summary of the method: as §1

[5] = molecular target: Fuc(a1-3)[Gal(b1-4)]GlcNAc
Summary of the method: as §1

[6] = molecular target: Fuc(a1-3)[Gal(b1-4)]GlcNAc(b1-2)Man(a1-3)[Fuc(a1-3)[Gal(b1-4)]GlcNAc(b1-2)Man(a1-6)]Man(b1-4)GlcNAc(b1-4)GlcNAc
Summary of the method: as §1

[7] = molecular target: Fuc(a1-3)[Gal(b1-4)]GlcNAc(b1-2)Man(a1-6)[Gal(b1-4)GlcNAc(b1-2)Man(a1-3)]Man(b1-4)GlcNAc(b1-4)GlcNAc
Summary of the method: as §1

[8] = molecular target: Fuc(a1-3)[Gal(b1-4)]GlcNAc(b1-3)Gal(b1-3)[Fuc(a1-4)]GlcNAc
Summary of the method: as §1

[9] = molecular target: Fuc(a1-3)[Gal(b1-4)]GlcNAc(b1-4)Gal(b1-4)[Fuc(a1-3)]GlcNAc
Summary of the method: as §1

[10] = molecular target: Fuc(a1-3)[Gal(b1-4)]GlcNAc(b1-4)Gal(b1-4)[Fuc(a1-3)]GlcNAc(b1-4)Gal(b1-4)[Fuc(a1-3)]GlcNAc
Summary of the method: as §1

[11] = molecular target: Fuc(a1-3)[Gal(b1-4)]GlcNAc6S
Summary of the method: as §1

[12] = molecular target: Fuc(a1-3)[Gal3S(b1-4)]Glc6S
Summary of the method: as §1

[13] = molecular target: Fuc(a1-3)[Gal3S(b1-4)]GlcNAc
Summary of the method: as §1

[14] = molecular target: Fuc(a1-3)[Gal3S(b1-4)]GlcNAc6S
Summary of the method: as §1

[15] = molecular target: Fuc(a1-3)[GalNAc(b1-4)]GlcNAc
Summary of the method: as §1

Fuc(a1-4)GlcNAc = molecular target: Fuc(a1-4)GlcNAc
Summary of the method: as §1

Fuc(b1-3)GlcNAc = molecular target: Fuc(b1-3)GlcNAc
Summary of the method: as §1

Gal(a1-2)Gal = molecular target: Gal(a1-2)Gal
Summary of the method: as §1

Gal(a1-3)Gal = molecular target: Gal(a1-3)Gal
Summary of the method: as §1

Gal(a1-3)Gal(b1-3)GlcNAc = molecular target: Gal(a1-3)Gal(b1-3)GlcNAc
Summary of the method: as §1

Gal(a1-3)Gal(b1-4)Glc = molecular target: Gal(a1-3)Gal(b1-4)Glc
Summary of the method: as §1

Gal(a1-3)Gal(b1-4)GlcNAc = molecular target: Gal(a1-3)Gal(b1-4)GlcNAc
Summary of the method: as §1

[16] = molecular target: Gal(a1-3)Gal(b1-4)[Fuc(a1-3)]GlcNAc
Summary of the method: as §1

Gal(a1-3)GalNAc = molecular target: Gal(a1-3)GalNAc
Summary of the method: as §1

[17] = molecular target: Gal(a1-3)[Gal(a1-4)]Gal(b1-4)GlcNAc
Summary of the method: as §1

Gal(a1-4)Gal(b1-4)Glc = molecular target: Gal(a1-4)Gal(b1-4)Glc
Summary of the method: as §1

Gal(a1-4)Gal(b1-4)GlcNAc = molecular target: Gal(a1-4)Gal(b1-4)GlcNAc
Summary of the method: as §1

Gal(a1-4)GlcNAc = molecular target: Gal(a1-4)GlcNAc
Summary of the method: as §1

Gal(a1-6)Glc = molecular target: Gal(a1-6)Glc
Summary of the method: as §1

Gal(b1-2)Gal = molecular target: Gal(b1-2)Gal
Summary of the method: as §1

Gal(b1-3)Gal = molecular target: Gal(b1-3)Gal
Summary of the method: as §1

Gal(b1-3)Gal(b1-4)GlcNAc = molecular target: Gal(b1-3)Gal(b1-4)GlcNAc
Summary of the method: as §1

Gal(b1-3)GalNAc = molecular target: Gal(b1-3)GalNAc
Summary of the method: as §1

[18] = molecular target: Gal(b1-3)GalNAc(b1-3)Gal(a1-4)Gal(b1-4)Glc
Summary of the method: as §1

[19] = molecular target: Gal(b1-3)GalNAc(b1-4)Gal(b1-4)Glc
Summary of the method: as §1

[20] = molecular target: Gal(b1-3)GalNAc(b1-4)[Neu5Ac(a2-3)]Gal(b1-4)Glc
Summary of the method: as §1

B1: MIC1 (Toxoplasma gondii), O00834 (protein)
chain: MGQALFLTVLLPVLFGVGPEAYGEASHSHSPASGRYIQQMLDQRCQEIAAELCQSGLRKMCVPSSRIVARNAVGITHQNTLQWRCFDTASLLESNQENNGVNCVDDCGHTIPCPGGVHRQNSNHATRHEILSKLVEEGVQRFCSPYQASANKYCNDKFPGTIARRSKGFGNNVEVAWRCYEKASLLYSVYAECASNCGTTWYCPGGRRGTSTELDKRHYTEEEGIRQAIGSVDSPCSEVEVCLPKDENPPLCLDESGQISRTGGGPPSQPPEMQQPADRSDERGGGKEQSPGGEAQPDHPTKGGNIDLPEKSTSPEKTPKTEIHGDSTKATLEEGQQLTLTFISTKLDVAVGSCHSLVANFLDGFLKFQTGSNSAFDVVEVEEPAGPAVLTIGLGHKGRLAVVLDYTRLNAALGSAAYVVEDSGCSSSEEVSFQGVGSGATLVVTTLGESPTAVSA
B1 was tested, and the “glycan array binding signal (z-score)” value [1] was -0.217, the “glycan array binding signal (z-score)” value [2] was -0.127 and the “glycan array binding signal (z-score)” value [3] was 0.267. The “glycan array binding signal (z-score)” value (Fuc(a1-3)GlcNAc) was -0.037, the “glycan array binding signal (z-score)” value [4] was -0.212 and the “glycan array binding signal (z-score)” value [5] was -0.257. For the same binder, the “glycan array binding signal (z-score)” value [6] was -0.139, the “glycan array binding signal (z-score)” value [7] was 0.029 and the “glycan array binding signal (z-score)” value [8] was 0.001. The “glycan array binding signal (z-score)” value [9] was -0.213, the “glycan array binding signal (z-score)” value [10] was -0.299 and the “glycan array binding signal (z-score)” value [11] was -0.221. The “glycan array binding signal (z-score)” value [12] was -0.267, the “glycan array binding signal (z-score)” value [13] was -0.041 and the “glycan array binding signal (z-score)” value [14] was -0.233. The “glycan array binding signal (z-score)” value [15] was -0.242, the “glycan array binding signal (z-score)” value (Fuc(a1-4)GlcNAc) was -0.218 and the “glycan array binding signal (z-score)” value (Fuc(b1-3)GlcNAc) was -0.217. The “glycan array binding signal (z-score)” value (Gal(a1-2)Gal) was -0.026, the “glycan array binding signal (z-score)” value (Gal(a1-3)Gal) was -0.233 and the “glycan array binding signal (z-score)” value (Gal(a1-3)Gal(b1-3)GlcNAc) was -0.059. The “glycan array binding signal (z-score)” value (Gal(a1-3)Gal(b1-4)Glc) was 0.073, the “glycan array binding signal (z-score)” value (Gal(a1-3)Gal(b1-4)GlcNAc) was -0.241 and the “glycan array binding signal (z-score)” value [16] was -0.014. For the same binder, the “glycan array binding signal (z-score)” value (Gal(a1-3)GalNAc) was -0.139, the “glycan array binding signal (z-score)” value [17] was 0.113 and the “glycan array binding signal (z-score)” value (Gal(a1-4)Gal(b1-4)Glc) was -0.07. The “glycan array binding signal (z-score)” value (Gal(a1-4)Gal(b1-4)GlcNAc) was -0.115, the “glycan array binding signal (z-score)” value (Gal(a1-4)GlcNAc) was -0.126 and the “glycan array binding signal (z-score)” value (Gal(a1-6)Glc) was -0.151. For the same binder, the “glycan array binding signal (z-score)” value (Gal(b1-2)Gal) was -0.324, the “glycan array binding signal (z-score)” value (Gal(b1-3)Gal) was -0.271 and the “glycan array binding signal (z-score)” value (Gal(b1-3)Gal(b1-4)GlcNAc) was -0.271. The “glycan array binding signal (z-score)” value (Gal(b1-3)GalNAc) was 0.028, the “glycan array binding signal (z-score)” value [18] was -0.25 and the “glycan array binding signal (z-score)” value [19] was 0.043. For the same binder, the “glycan array binding signal (z-score)” value [20] was -0.14.
